The campaign covered roughly 310,000 compounds. About 2,200 (0.71%) showed an effect of 50% or more. Effects have a minus sign here. The list shows a part of the results.
These molecules were tested against human ether-à-go-go-related gene (hERG) potassium channel (human, UniProt Q12809) (assay: primary screen, population patch clamp on CHO cells stably expressing hERG).
Chain of human ether-à-go-go-related gene (hERG) potassium channel (Q12809 whole entry, looked up): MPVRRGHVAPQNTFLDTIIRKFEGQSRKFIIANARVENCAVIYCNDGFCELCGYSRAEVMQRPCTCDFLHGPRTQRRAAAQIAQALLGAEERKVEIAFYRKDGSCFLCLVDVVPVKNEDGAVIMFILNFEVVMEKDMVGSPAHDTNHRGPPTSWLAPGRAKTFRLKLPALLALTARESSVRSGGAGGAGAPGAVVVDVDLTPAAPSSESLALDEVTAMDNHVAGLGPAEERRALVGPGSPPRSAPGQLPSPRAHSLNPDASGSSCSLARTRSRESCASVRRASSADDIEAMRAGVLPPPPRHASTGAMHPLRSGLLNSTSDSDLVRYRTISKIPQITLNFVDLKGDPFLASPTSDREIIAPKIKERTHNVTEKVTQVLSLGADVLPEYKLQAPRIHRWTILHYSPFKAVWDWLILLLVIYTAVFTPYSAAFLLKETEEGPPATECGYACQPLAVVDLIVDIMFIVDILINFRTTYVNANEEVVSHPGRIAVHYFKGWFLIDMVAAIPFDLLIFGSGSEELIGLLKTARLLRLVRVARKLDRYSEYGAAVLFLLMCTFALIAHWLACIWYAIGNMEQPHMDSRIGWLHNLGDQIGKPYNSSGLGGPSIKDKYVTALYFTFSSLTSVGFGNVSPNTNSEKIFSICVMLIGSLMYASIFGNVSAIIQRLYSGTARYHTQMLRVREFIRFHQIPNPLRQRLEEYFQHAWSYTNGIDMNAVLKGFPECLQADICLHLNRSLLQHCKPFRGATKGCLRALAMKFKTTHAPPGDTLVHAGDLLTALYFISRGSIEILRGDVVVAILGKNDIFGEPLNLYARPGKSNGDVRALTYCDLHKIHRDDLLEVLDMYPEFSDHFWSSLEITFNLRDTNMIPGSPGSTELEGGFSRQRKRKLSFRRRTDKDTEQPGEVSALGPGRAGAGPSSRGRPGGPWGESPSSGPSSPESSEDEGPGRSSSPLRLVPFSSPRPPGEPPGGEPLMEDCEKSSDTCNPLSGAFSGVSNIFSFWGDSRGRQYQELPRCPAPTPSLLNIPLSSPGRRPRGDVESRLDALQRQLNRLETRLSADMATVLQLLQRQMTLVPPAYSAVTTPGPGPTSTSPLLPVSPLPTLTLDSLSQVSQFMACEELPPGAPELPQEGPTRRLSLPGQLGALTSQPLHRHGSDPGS

SMILES	hERG current change (%, negative = inhibition) at 1uM [%]
COc1cc2c(cc1OC)C(C)N(Cc1ccc3c(c1)OCO3)CC2 (stereo not drawn)	9.84
O=C(O)CCC(=O)Nc1cccc(-c2nc3ccccc3o2)c1	12.9
COc1ccc2nc(C(C)O)[nH]c2c1 (stereo not drawn)	7.65
COc1ccc(Br)cc1CNC(=O)Cn1nc(C)n2cccc2c1=O	5.14
O=C(Cn1nnc(-c2ccccc2)n1)Nc1ccc2c(c1)OCO2	7.38
CCCC(=O)N1CCC(Cc2ccccc2)CC1	12.1
CCCCn1cnc2c1c(=O)n(CC(=O)c1cc(C)n(C)c1C)c(=O)n2CC(C)C	2.6
CCCn1c(-c2ccc[nH]c2=O)nc2cc(C)c(C)cc21	9.29
Cc1nc(C)c(C(=O)OC(C)C(=O)Nc2ccc(F)cc2)s1 (stereo not drawn)	5.89
COc1cccc(NC(=O)COC(=O)/C=C/c2c(C)nn(-c3ccccc3)c2C)c1	-7.1
CCn1c(SCC(=O)Nc2ccc(OC)c(OC)c2)nc2c(c1=O)SCC2	9.56
O=c1cc(C(F)(F)F)c2cc3c4c(c2o1)CCCN4CCC3	0.791
O=C(Nc1ccccc1)C(=O)c1c[nH]c2ccccc12	7.16
COCCNC(=O)COc1coc(CN2CCN(Cc3ccccc3)CC2)cc1=O	13.9
Cc1cccc2nc3ccccc3nc12	14.2
Cc1nnc(Nc2ccc(Cl)cc2)n(N)c1=O	11
O=C(O)c1ccccc1C(=O)Nc1ccc(S(=O)(=O)NC2CCCCC2)cc1	8.33
COc1ccc(N(CC(=O)NC2CCCCC2)C(=O)CNC(=O)c2ccco2)cc1OC	-3.24
Cc1ccc(Nc2nnc(SCc3ccccc3)s2)cc1	10.6
O=C(CN1CCN(c2ncc(C(F)(F)F)cc2Cl)CC1)N1CCN(c2ncc(C(F)(F)F)cc2Cl)CC1	10.3
COc1ccc(N2C(=O)C3C4C=CC(C4)C3C2=O)c([N+](=O)[O-])c1 (stereo not drawn)	-2.71
CC1CCN(C(=O)c2nc[nH]c2C(=O)O[C@H](C)c2ccccc2)CC1	15.2
CC(C)CC(c1nnnn1C1CCCC1)N1CCN(c2ccccc2F)CC1.Cl (stereo not drawn)	4.47

SMILES	hERG current change (%, negative = inhibition) at 1uM [%]
Cc1nc2ccc(NC(=O)Cc3c(F)cccc3Cl)cc2s1	7.62
O=C(Nc1ccccc1)OC1CN=C(N[N+](=O)[O-])NC1 (stereo not drawn)	-5.37
Oc1ccccc1C=Nc1ccccc1-c1nc2ccccc2[nH]1	1.95
COc1cccc(C(=O)Nc2cccc(-c3nnc(-c4ccccc4)o3)c2)c1	0.307
CCCCCCCC(=O)NC(Oc1ccccc1[N+](=O)[O-])C(Cl)(Cl)Cl (stereo not drawn)	10.9
O=C(NC1(C(F)(F)F)C(=O)Nc2c1c(=O)[nH]c(=O)n2Cc1ccccc1)c1ccc(Cl)cc1 (stereo not drawn)	7.34
COC(=O)c1c(CCl)noc1C(=O)NC(C)C	11.3
CC(C)CC(=O)N1CCN(Cc2cccc(F)c2)CC1	4.4
O=C(Cn1ncc2c3ccccc3n(Cc3ccccc3)c2c1=O)NCCCN1CCCC1=O	-7.41
O=C(CCN1C(=O)C2C3C=CC(C3)C2C1=O)N1CCN(c2ccc([N+](=O)[O-])cc2)CC1 (stereo not drawn)	-49.5
COc1ccc(-c2csc(-n3ncc(C(=O)O)c3C(F)(F)F)n2)cc1	14.9
Cc1cccc(OCCC(=O)Nc2ccc(F)c(Cl)c2)c1	14.3
CC(C)(C)OC(=O)N1CCC(Cc2cc(-c3ccccc3)no2)(C(=O)O)CC1	8
CCc1cc2cc3c(cc2nc1SCC(=O)Nc1nccs1)OCO3	1.41
O=C1OC(Cc2ccncc2)C(O)=C1C1=NCCCN1 (stereo not drawn)	11.6
CN(c1ccccc1)S(=O)(=O)c1ccc(C(=O)NCC2CCCO2)cc1 (stereo not drawn)	4.38
CCc1nc(NCc2cccnc2)c2oc3ccccc3c2n1.Cl	8.44
CSc1nc(N)c(NC(=O)c2ccc(Br)o2)c(=O)[nH]1	23.2
COc1cc(/C=N/NC(=O)c2cccc(C)c2)ccc1OCC(=O)Nc1ccccc1	10.9
c1ccc(CCNc2ncnc3nc[nH]c23)cc1	11
Cc1ccccc1CSCC(Nc1ccc(C(=O)O)cc1[N+](=O)[O-])C(=O)O (stereo not drawn)	7.82
O=C1c2cnccc2CN1Cc1ccccc1	7.4

Source: paper PMC4336329 (PLoS ONE, 2015)
